Test results reported in a collection of fitness landscapes (doi:10.1016/j.celrep.2020.107928).
Whole data set: some 81,000 sequences, median “one-hybrid fitness for binding NBS DNA” near -0.1, cut for the highest 2% near 0.36. The list shows a part of the results.

B1: Caulobacter ParB omega fusion; a variant is named by its letters at X, in order, B8GW30 (parent)
chain: MESVVVGEPGMSEGRRGLGRGLSALLGEVDAAPAQAPGEQLGGSREAPIEILQRNPDQPRRTFREEDLEDLSNSIREKGVLQPILVRPSPDTAGEYQIVAGERAWRAAQRAGLKTVPIMVRELDDLAVLEIGIIENVQRADLNVLEEALSYKVLMEKFERTQENIAQTIGKSXSHVANXMRLLXLPDEVQSYLVSGELTAXHARAIAAAADPVALAKQIIEGGLSVRETEALARKAPNLSAGKSKGGRPPRVKDTDTQALESDLSSVLGLDVSIDHRGSTGTLTITYATLEQLDDLCNRLTRGI

Variants of: B1
Assay: one-hybrid fitness for binding NBS DNA (the Noc-binding site; scaled: cognate 1, non-cognate 0); higher = stronger binding
Conditions: with NBS DNA site
Summary of the method: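 On M9-minus-histidine containing 0.1 mM IPTG and 5 mM 3-AT, E. coli USO cells with a HIS3 reporter, site 19 bp from the promoter, grew 48 hours at 37°C to select Caulobacter ParB libraries randomised at four specificity codons. Plasmids from before and after were Illumina-sequenced, with three replicate libraries pooled and variants under 10 reads left out. Fitness is the log change in variant-to-wild-type read ratio, rescaled against cognate and non-cognate.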

one-hybrid fitness for binding NBS DNA, 0.239:
NRTM

one-hybrid fitness for binding NBS DNA, ≤ 0.2:
QIYC
VRPM
SAAA
FIFF
VRMS
RQVH
CSAD
PFSK
RYCC
NRLV
VMRT
LQSA
MTNI
ALSR
YKHK
QIKD
SQPP
KSQA
RNDS
DHSR
HATW
RRQP
DQFT
DESC
LAHQ
DNKG
THDC
PFSA
PKRS
SPDL
GFSR
HFPR
KRHE
VTVL
WYPP
PFMN
MVYL
GNHT
RYHM
CHNR
NAMG
SLTL
DISL
VTNL
NVDI
LFEG
GFKG
QACW
RNYA
PVQW
NQNR
VRNI
FNSS
WAAN
TGPM
SKAW
AYGA
PTMR
AKWL
HLTL
ARLS
ALDT
AWTI
DCRE
YEEE
KPID
RDCQ
RIGG
DHKS
PKAL
TAKW
TFCI
REKG
QASP
HLLI
NHSR
CACC
RYIL
NDPM
VSKS
EFWR
SWDM
AMDY
FVKG
TPCY
HNAW
TVGM
RFWF
IWLV
YRSS
RMPH
NTTD
MTWA
SYQR
GWYV
SIRI
LWYL
GEQG
SDPW
CVMI
PIHM
SSRL
ETDL
GNRC
DIVC
STPP
EPSC
NVTA
QWRC
HSGK
QLAD
PPAP
LFIG
PFIL
YPSE
KRNP
WYGK
IPQL
PCMA
FILS
FNFS
SYAA
KVLD
KEDC
SMYS
SRTS
NHKV
GATR
IAWK
SSYI
ERGR
REAQ
QVCE
RFIN
ATFS
RLCY
LTLQ
NCLL
ARML
SIFW
IDKS
HSCM
DRKK
LPSH
RFMS
QCMI
TVFA

one-hybrid fitness for binding NBS DNA, 0.256:
RHWR

one-hybrid fitness for binding NBS DNA, 0.423:
IRRT

one-hybrid fitness for binding NBS DNA, 0.262:
QKRL

one-hybrid fitness for binding NBS DNA, 0.639:
QKNT
QTLR
